Among all 45,000 compounds or so, about 65 (0.1%) were called active. Calls follow the shape of the dose curve; as a rule, active = well fitted activation curve with a large enough effect; inconclusive = small, poorly fitted or top-dose-only effect; inactive = no such curve, though single readings can be large or run the other way. Some of the results follow.
biological target: Galactocerebrosidase (Homo sapiens) (UniProt P54803); experiment: A Novel Cell-Based Assay to Identify Small Molecules for B -Galactocerebrosidase; settings: 145M-Twi-hGALC-G270D cells (Twitcher mouse brain line with human GALC G270D), HMU-beta-Gal fluorescence, 48 h; series mostly up to 57.5 µM; activation: at the top concentration; also: 0% is about no effect; nearly all actives have a fitted effect of over 65% in size
Outline: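 Fluorogenic HMU-b-Gal hydrolysis (0.1 mM final, pH 5.2 citrate-phosphate with 1 mg/mL sodium taurocholate; carbonate stop buffer) measures mutant GALC activity after compound treatment of live 145M-Twi Twitcher brain cells stably carrying human GALC-G270D, with wild-type GALC line alongside; activation sought.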

Sequence of UniProt P54803 (P54803 whole entry, looked up): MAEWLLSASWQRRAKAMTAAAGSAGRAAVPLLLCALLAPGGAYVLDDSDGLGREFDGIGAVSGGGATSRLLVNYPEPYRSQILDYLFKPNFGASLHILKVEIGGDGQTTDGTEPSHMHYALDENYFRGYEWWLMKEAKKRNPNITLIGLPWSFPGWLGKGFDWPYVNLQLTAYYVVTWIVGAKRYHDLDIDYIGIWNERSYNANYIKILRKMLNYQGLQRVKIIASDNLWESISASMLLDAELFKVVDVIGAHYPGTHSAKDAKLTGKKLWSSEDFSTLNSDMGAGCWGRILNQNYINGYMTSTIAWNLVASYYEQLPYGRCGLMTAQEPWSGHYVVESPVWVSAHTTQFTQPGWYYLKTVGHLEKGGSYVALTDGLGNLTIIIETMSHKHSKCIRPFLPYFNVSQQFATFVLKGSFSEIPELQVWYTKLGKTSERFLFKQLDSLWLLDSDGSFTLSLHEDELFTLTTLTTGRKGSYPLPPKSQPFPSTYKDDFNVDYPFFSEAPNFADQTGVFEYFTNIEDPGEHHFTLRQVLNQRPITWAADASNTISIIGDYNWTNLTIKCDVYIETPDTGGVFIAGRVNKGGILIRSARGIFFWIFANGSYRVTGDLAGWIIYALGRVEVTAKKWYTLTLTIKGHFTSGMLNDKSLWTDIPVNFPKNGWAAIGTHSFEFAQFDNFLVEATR

activation, inactive:
O=C(CCCCn1c(=O)c2ccccc2n(Cc2ccccc2F)c1=O)NCc1ccccc1Cl -4.93%
CC(C)CCNC(=O)c1cc(Sc2ccc(F)cc2F)nc2ccccc12 -16.4%
COc1ccc(N2C(=O)CS(=O)(=O)C23C(=O)N(Cc2c(F)cccc2Cl)c2ccccc23)cc1 (stereo unspecified) -26.7%
COc1ccc(NC(=O)CN(C)S(=O)(=O)c2ccc3nc(C)sc3c2)cc1 -13.1%
O=C(CN1CCN(CC(=O)Nc2ccccc2F)CC1)Nc1ccc(Cl)c(C(F)(F)F)c1 0.626%
CCOC(=O)C1=C(C(F)(F)F)Nc2ncnn2C1c1cccc(OC)c1OC (stereo unspecified) -13.5%
COc1ccc(NC(=O)C2=C(C)Nc3ncnn3C2c2ccccn2)cc1 (stereo unspecified) 1.86%
CCOC(=O)c1cnc2c(C)cc(C)cc2c1Nc1ccc(OCc2ccccc2)cc1 -27.5%
CCCCn1cc(S(=O)(=O)c2ccccc2)c(=O)c2cc(F)c(N3CCC(C)CC3)cc21 -10.1%
CCc1ccc(NC(=O)C2CCN(S(=O)(=O)c3c(C)noc3/C=C\c3ccc(OC)cc3)CC2)cc1 -10.3%
O=C(NCCc1ccccc1)c1ccc(CSc2nc3ccncc3n2Cc2cccc(F)c2)cc1 -13.3%
COc1cc(C(=O)Nc2ccc(OCc3cc(=O)n4cccc(C)c4n3)cc2)cc(OC)c1OC -31.4%
CC1=C(c2ccc(C)c(C)c2)S(=O)(=O)N=C1N1CCC(C(=O)N2CCCCC2)CC1 1.63%
CCOc1ccc(CNC(=O)CCc2cn(CC)c3ccccc23)cc1 -4.44%
CCCOc1ccccc1-c1nc2n[nH]nc2c(=O)[nH]1 -11.8%
COc1ccc(-n2nc(C(=O)NCc3ccc(F)cc3)c3c4ccccc4n(C)c3c2=O)cc1 -8.51%
CN(C)c1ccc(CNC(=O)c2ccc3c(c2)N(C)C(=O)C2CCCCN32)cc1 (stereo unspecified) -14.8%
O=C(c1cnc(N2CCOCC2)c2ccccc12)N1CCN(c2ccccc2F)CC1 -4.8%
CCOc1ccccc1N1CC(c2nc3ccccc3n2CCCCOc2cc(C)ccc2C)CC1=O (stereo unspecified) -8.01%
COc1ccccc1CNc1ccc(-c2nc(-c3cccc(C)c3)no2)cc1[N+](=O)[O-] -5.51%
CCCCOc1ccc(CN2C(=O)C(=O)c3cc(C)ccc32)cc1OC -8.38%
CCN(CC)C(=O)c1sc2c(c1C)c(=O)n(CCc1ccccc1)c(=O)n2Cc1cccc(Cl)c1 -11.8%
CC(C)NC(=O)C1CCN(C(=O)N2CC(C)Oc3ccccc32)CC1 (stereo unspecified) -8.84%
CCOc1ccc2nc(N3CCCC(C(=O)NCc4ccc(C)cc4)C3)sc2c1 (stereo unspecified) -7.59%
COc1ccccc1NC(=O)Cn1c(=O)n(Cc2nc(-c3ccccc3)no2)c(=O)c2ccccc21 -13.4%
Cc1ccc(C)c(NC(=O)Nc2csc3c2CCCC3)c1 -11.9%
CCS(=O)(=O)NCCc1csc2nc(-c3ccc(C)cc3)nn12 -11.7%
COc1ccc(NC(=O)Cn2cc(C(=O)c3cccs3)c3ccccc32)cc1 -9.19%
O=C(COCc1cc(-c2cccs2)on1)Nc1cccc(O)c1 -21.5%
CCC1=C(c2ccc(C)cc2)S(=O)(=O)N=C1N1CCC(C(=O)N2CCCCC2)CC1 -2.35%
COC(=O)c1c(C)sc(-c2c(-c3ccc4c(c3)OCCO4)[nH]c3c2c(=O)[nH]c(=O)n3C)c1O -26.5%
Cc1cccc(-n2c(-c3ccco3)nc3c(cnn3-c3ccc(F)cc3)c2=O)c1 -21.3%
Cc1ccc(-n2cnc3cc(C(=O)NC4CCCCCC4)ccc32)cc1Cl 3.07%
Cc1c(CNCCCc2ccccc2)c(C(=O)O)c(C)n1Cc1cccc(Cl)c1 -1.7%
COc1ccc(NC(=O)C2CCN(S(=O)(=O)c3c(C)noc3/C=C/c3ccc(C)cc3)CC2)cc1Cl -10.7%
COc1ccc(-c2nn(C)c3sc(C(=O)N4CCN(c5cccc(Cl)c5)CC4)cc23)cc1OC -16.4%
CCc1ccc(OCC(=O)Nc2ccc3oc(-c4ccc(OC)cc4)nc3c2)cc1 -16.5%
CCc1ccc(OCC(=O)Nc2ccc(Cl)c(-c3nc4ncccc4o3)c2)cc1 -15.3%
O=C(COc1ccccc1)Nc1c(Cl)ccc2nsnc12 0.115%
COC(=O)CC1Oc2ccc(Cl)cc2-n2cc(-c3ccc(F)cc3)nc21 (stereo unspecified) 0.268%
Cc1ccc(NS(=O)(=O)c2ccc3[nH]c4c(c3c2)CCCCC4)cc1 -41.3%
COc1ccc(S(=O)(=O)c2cn(C)c3cc(N4CCOCC4)c(F)cc3c2=O)cc1 -16.7%
Cc1ccc(OCc2cc(=O)n3cc(C)sc3n2)c(C)c1 -0.839%
CCN1CCN(C(=O)c2c(C)nn(-c3ccc(F)cc3)c2-n2cccc2)CC1 -7.74%
CC(C)(C)NC(=O)CCSc1nc(-c2ccc3c(c2)OCO3)cc(C(F)(F)F)n1 -13.6%
CCOc1ccc(S(=O)(=O)NCC(c2cccs2)S(=O)(=O)c2ccc(C)cc2)cc1 (stereo unspecified) -12.6%
Cc1ccc(C)c(N(C)S(=O)(=O)c2ccc3[nH]cc(C(=O)NC4CCCC4)c(=O)c3c2)c1 7.44%
CN(C)c1ccc(CNC(=O)c2cccn2-c2nnc(N3CCCCC3)s2)cc1 -6.82%
CCCCOc1ccc(C(=O)NCCc2csc(-c3ccc(OC)cc3)n2)cc1 -8.9%
CCOC(=O)c1cnc2nc(NCc3ccc(OCC)cc3)[nH]n2c1=O -15%
Cc1ccc(C)c(NC(=O)CSc2nc(-c3ccccc3Cl)nc3c2Cc2c(CO)cnc(C)c2O3)c1 -10.6%
Cc1c(C(=O)OCCOc2ccccc2)[nH]c2c1C(=O)CC(c1ccccc1Cl)C2 (stereo unspecified) -23%
CCOC(=O)c1cccc(NC(=O)c2nn(-c3ccc(OC)cc3)c(=O)c3c2c2ccccc2n3C)c1 -10.6%
CN(Cc1ccccc1)c1ccc(-c2nc(-c3cccnc3)no2)cc1[N+](=O)[O-] -9.92%
CCN(Cc1ccccc1)S(=O)(=O)c1ccc2[nH]c3c(c2c1)CCCCC3 1.38%
Cc1cc(-c2nc3ncccc3o2)ccc1NC(=O)COc1cc(C)c(Cl)c(C)c1 -3.88%
CCC(C(=O)NCCc1cc(OC)ccc1OC)n1nc(C)c2sc3ccccc3c2c1=O (stereo unspecified) 4.79%
O=C(NCc1ccc(F)cc1)C(=O)NCC(c1cccs1)S(=O)(=O)c1cccs1 (stereo unspecified) -5.62%
CCC(=O)N1c2ccccc2CC1C(=O)NCCc1ccccc1 (stereo unspecified) -17.1%
O=C(NCCc1ccccc1Cl)c1sc2ncccc2c1-n1cccc1 -6.2%
O=C(NC1CCN(CCc2c[nH]c3ccccc23)CC1)c1ccccc1 -10.4%
CC(C)CCNC(=O)c1cc2cc(S(=O)(=O)N3CCCCC3)ccc2n1C -10.6%
Cn1c(=O)oc2cc(S(=O)(=O)N3CCCC(C(=O)NCc4ccc(F)cc4)C3)ccc21 (stereo unspecified) 3.91%
O=C(Nc1ccc(F)c(Cl)c1)N1CC=C(c2c[nH]c3ccccc23)CC1 -4.74%
CC1=C(C(N)=O)C(c2ccccc2Br)n2ncnc2N1 (stereo unspecified) -4.06%
O=C(NCc1ccccc1Br)c1cnc2sc(N3CCCCCC3)nn2c1=O -5.82%
COc1ccc(CNC(=O)CCCN2C(=O)COc3ccc(C)cc32)cc1 -7.4%
Cc1ccc(N2CCN(C(=O)c3cnc(N4CCCCC4)c4ccccc34)CC2)c(C)c1 -42.9%
CCC(=O)Nc1ccccc1-c1nc2ccccc2n(CC(=O)c2ccc(C)cc2)c1=O -5.89%
CSc1ncc(Cl)c(C(=O)Nc2c(C(=O)Nc3cccc(Cl)c3)oc3ccccc23)n1 -18.6%
COc1cccc(Cn2nnc3c(=O)[nH]c(C4CCN(C(=O)c5ccccc5Cl)CC4)nc32)c1 -27%
CCOC(=O)c1ccc(NC(=O)CSc2c3c(nc4cc(Cl)ccc24)CCCC3)cc1 -14.5%
COc1cc(OC)c(NC(=O)CCCn2nc(C)c3c(C)n(-c4ccccc4)nc3c2=O)cc1Cl -3.45%
COc1ccc(-n2nc(C(=O)N3CCCC(C)C3)c3c4ccccc4n(C)c3c2=O)cc1Cl (stereo unspecified) -10.8%
Cc1ccc(N2CCn3c2nc2c3c(=O)n(CCCc3ccccc3)c(=O)n2C)cc1C -11.1%
CCN(CC)c1nc2ccccc2nc1C(=O)Nc1cc(OC)c(OC)c(OC)c1 -4.91%
O=C(NC1CC(=O)N(c2ccccc2)C1)c1ccc(S(=O)(=O)N2CCCCC2)cc1 (stereo unspecified) -12.4%
Cc1nn(C(=O)c2ccc(Cl)cc2)c(C)c1S(=O)(=O)N1CCCCCC1 -4.85%
Cc1nn2c(C)c(C(=O)NCc3ccco3)cnc2c1-c1ccccc1 -14%
COc1ccccc1NC(=O)C1=C(C)Nc2nc(SCc3ccccc3Cl)nn2C1c1ccccn1 (stereo unspecified) -10.2%
CN(C)c1ccc(/C=C/c2noc(-c3ccccc3O)n2)cc1 -14.7%
Cc1cccc(OCC(=O)N(Cc2ccc(C(C)(C)C)cc2)Cc2ccco2)c1 -14.7%
O=c1[nH]c(=O)n(C2CCCCC2)c(O)c1C1=Nc2ccccc2SC(c2ccccc2)C1 (stereo unspecified) -7.15%
COc1ccc(C2C(C(=O)Nc3cccnc3)=C(C)Nc3nc(-c4ccccc4)nn32)cc1OC (stereo unspecified) -11.6%
COc1cc(OC)nc(O[C@H](C(=O)O)C(OC)(c2ccccc2)c2ccccc2)n1 -10.1%
COc1ccc(OCC(=O)NCC(c2ccc(OC)cc2)N2CCCCC2)cc1 (stereo unspecified) -29.8%
CC(C)C(NS(=O)(=O)c1ccc2c(c1)oc(=O)n2C)C(=O)NCCc1ccccc1 (stereo unspecified) 0.548%
COCCCNc1nc(NCc2cccc(Cl)c2)c2cnn(C)c2n1 0.229%
COc1ccc(-c2nc(CSc3nnc(C)n4c3cc3occc34)c(C)o2)cc1OC -14.7%
CCc1ccc(-n2nc(C)c3c(C)cc(=O)n(CC(=O)Nc4ccc(C(C)=O)cc4)c32)cc1 -6.16%
COc1cc(OC)c(NC(=O)N2CC3CCCN3c3ccccc32)cc1Cl (stereo unspecified) -2.86%
CSc1ccc(CCNS(=O)(=O)c2ccc3c(c2)C(C)(C)C(=O)N3C)cc1 -1.82%
O=c1c2ccccc2n2c(-c3ccc(Cl)cc3)nnc2n1CCc1ccccc1 -24.2%
CC(C)c1ccc(NC(=O)C(C)N(c2ccccc2)S(C)(=O)=O)cc1 (stereo unspecified) -0.254%
Cc1ccc(C(c2cccc(Br)c2)c2c(C)[nH]c3ccccc23)s1 (stereo unspecified) -16.9%
COc1cc(OC)cc(C(=O)N2CCN(C(=O)COc3ccccc3)CC2)c1 -10.2%

Reference: PubChem BioAssay AID1159614 (National Center for Advancing Translational Sciences (NCATS), 2016)
